This is one part of the list. Many values rest on one well or one pass, so single values are uncertain.
Each compound was assayed on WM1716 (assay: cell count relative to DMSO control; melanoma cells; higher = more viable cells). Details: library dose: standard library concentration; 72 h.
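Note: cells treated in 1,536-well plates, then fixed and DAPI-stained, with nuclei counted from automated high-throughput microscope images.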

Structure (SMILES)	cell count [%]
Cc1ccc(NC(=O)c2cccc(N(C)C)c2)cc1NC(=O)c1ccc(O)cc1 + Cn1cc(/C=C2\C(=O)Nc3cccnc32)c2ccccc21 [GW441756] (first compound 10 µM, partner dose 2 µM)	105
CC(C)(C)c1cnc(CSc2cnc(NC(=O)C3CCNCC3)s2)o1 + OCCn1cc(-c2cnc3nnn(Cc4ccc5ncccc5c4)c3n2)cn1 [PF04217903] (first compound 0.05 µM, partner dose 5 µM)	65.2
NC(=O)c1ccc(N(C(N)=O)c2c(F)cccc2F)nc1-c1ccc(F)cc1F + CCCCCCCCc1ccc(CCC(N)(CO)CO)cc1 [fingolimod] (first compound 2 µM, partner dose 10 µM)	41.7
NC(=O)c1ccc(N(C(N)=O)c2c(F)cccc2F)nc1-c1ccc(F)cc1F + C[C@@H](Oc1cc(-c2cnn(C3CCNCC3)c2)cnc1N)c1c(Cl)ccc(F)c1Cl [Crizotinib] (first compound 2 µM, partner dose 1 µM)	92.4
CCCCCCCCc1ccc(CCC(N)(CO)CO)cc1 [fingolimod] + C=C(c1ccc(C(=O)O)cc1)c1cc2c(cc1C)C(C)(C)CCC2(C)C [Bexarotene] (first compound 10 µM, partner dose 10 µM)	9.1
NC(=O)c1ccc(N(C(N)=O)c2c(F)cccc2F)nc1-c1ccc(F)cc1F + O=C(O)c1ccc(-c2c[nH]c3ncc(-c4ccccc4)cc23)cc1C1CCCC1 [GSK650394] (first compound 2 µM, partner dose 0.8 µM)	101
CCCCCCCCc1ccc(CCC(N)(CO)CO)cc1 [fingolimod] + CS(=O)(=O)CCNCc1ccc(-c2ccc3ncnc(Nc4ccc(OCc5cccc(F)c5)c(Cl)c4)c3c2)o1 [lapatinib] (first compound 10 µM, partner dose 4 µM)	13
CC(C)(C)c1cnc(CSc2cnc(NC(=O)C3CCNCC3)s2)o1 + CN(NC(=O)CC(=O)NN(C)C(=S)c1ccccc1)C(=S)c1ccccc1 [STA4783] (first compound 0.05 µM, partner dose 0.03 µM)	55.5
CCCCCCCCc1ccc(CCC(N)(CO)CO)cc1 [fingolimod] + COc1ccc(Cl)c(Nc2nc3ccccc3nc2NS(=O)(=O)c2cccc(NC(=O)C(C)(C)N)c2)c1 [XL147] (first compound 10 µM, partner dose 4 µM)	60.7
CCCCCCCCc1ccc(CCC(N)(CO)CO)cc1 [fingolimod] + C[C@@H]1CCN(C(=O)CC#N)C[C@@H]1N(C)c1ncnc2[nH]ccc12 [CP690550] (first compound 10 µM, partner dose 5 µM)	37.2
COc1cc2c(Oc3ccc4[nH]c(C)cc4c3F)ncnc2cc1OCCCN1CCCC1 [cediranib] + CCN(CC)CCCCNc1ncc2cc(-c3cc(OC)cc(OC)c3)c(NC(=O)NC(C)(C)C)nc2n1 [PD173074] (first compound 2 µM, partner dose 0.5 µM)	114
NC(=O)c1ccc(N(C(N)=O)c2c(F)cccc2F)nc1-c1ccc(F)cc1F + CN(C)S(=O)(=O)c1ccc2c(c1)/C(=C/c1cc3c([nH]1)CCCC3)C(=O)N2 [SU6656] (first compound 2 µM, partner dose 2 µM)	56.6
CCCCCCCCc1ccc(CCC(N)(CO)CO)cc1 [fingolimod] + COCC[n+]1c2c(n(Cc3cnccn3)c1C)C(=O)c1ccccc1C2=O [YM155] (first compound 10 µM, partner dose 0.002 µM)	50.4
CC(C)(C)c1cnc(CSc2cnc(NC(=O)C3CCNCC3)s2)o1 + COc1ccc2c(c1)CCC1C2CCC2(C)C(NCCCCCCN3C(=O)C=CC3=O)CCC12 [U73122] (first compound 0.05 µM, partner dose 2 µM)	52.7
CC(C)(C)c1cnc(CSc2cnc(NC(=O)C3CCNCC3)s2)o1 + COc1ccc(COc2ccc(Cc3cnc(N)nc3N)cc2OC)cc1 [GW2580] (first compound 0.05 µM, partner dose 5 µM)	83.6
